PubChem BioAssay AID485294 (National Center for Advancing Translational Sciences (NCATS), 2010)
The campaign covered roughly 370,000 compounds. About 150 (0.041%) were called active. Inconclusive means that the source gave no clear call. Such entries were picked first, then a sample of the others. Calls come from the whole dose curve; as a rule, active = well fitted inhibition curve with a large enough effect; inconclusive = small, poorly fitted or top-dose-only effect; inactive = flat fitted curve, though single readings scatter. No potency is given beside an inconclusive call; the fits are too rough.

Target: Beta-lactamase (Escherichia coli (strain K12)) (UniProt P00811)
UniProt P00811, sequence (P00811 whole entry, looked up): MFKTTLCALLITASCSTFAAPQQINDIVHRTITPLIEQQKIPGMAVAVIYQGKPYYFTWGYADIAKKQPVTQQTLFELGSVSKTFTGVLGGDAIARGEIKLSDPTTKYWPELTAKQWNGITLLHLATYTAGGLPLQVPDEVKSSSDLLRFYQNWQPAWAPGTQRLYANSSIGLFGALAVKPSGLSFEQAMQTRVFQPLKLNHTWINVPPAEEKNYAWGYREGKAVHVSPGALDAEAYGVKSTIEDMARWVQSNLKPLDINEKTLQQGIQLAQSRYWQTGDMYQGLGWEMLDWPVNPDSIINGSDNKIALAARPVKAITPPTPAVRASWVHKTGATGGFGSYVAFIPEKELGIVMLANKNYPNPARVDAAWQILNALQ
Test: qHTS Inhibitors of AmpC Beta-Lactamase (assay with detergent); note: nearly all actives have a fitted effect of over 25% in size;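 for activity change, negative = inhibition: 0% = no-compound wells and -100% = no-enzyme wells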
Conditions: AmpC hydrolysis of nitrocefin, absorbance 480 nm, 0.01% Triton; activity change, negative = inhibition: at 114 µM (top of the series)
How it was run: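 AmpC (5.3 nM in the dispensed reagent) in 20 mM phosphate pH 7.0 with 0.01% (detergent screen) or 0.0001% Triton X-100 was preincubated with compounds for 15 min at room temperature. Nitrocefin was then added from an 800 uM solution, and hydrolysis was followed at 480 nm.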
Potency is the fitted concentration of half-maximal effect; tags give direction and shape of the fitted curve.

Structure (SMILES)	Potency	activity change, negative = inhibition
Cc1cccn2c(=O)c(/C=C(\C#N)S(=O)(=O)c3ccccc3)c(Oc3ccc(Cl)cc3)nc12	inconclusive [inhibitor, partial curve]	–
O=C(CCOc1ccccc1)N1CCN(S(=O)(=O)c2ccccc2F)CC1	inconclusive [inhibitor, single point]	–
COc1ccc(CN(C)C(=O)c2cccc(S(=O)(=O)N3CCc4ccccc43)c2)c(OC)c1	–	inactive: -2.34%
CC(C)CC(OC(=O)c1ccc(Cl)nc1)C(=O)NC1CCCC1 (configuration not stated)	inconclusive [inhibitor, partial curve, poor fit]	–
CC(C)CNS(=O)(=O)c1ccc(C(=O)Nc2ccc3c(c2)OCCO3)cc1	–	inactive: 1.89%
CC(C)Cn1c(N)c(C(=O)COC(=O)C2CCCCC2)c(=O)n(C)c1=O	–	inactive: -11.8%
CCc1nc2ccc(C(=O)NCc3ccccc3)cc2nc1CC	inconclusive [inhibitor, single point]	–
Cc1ccnc(NS(=O)(=O)c2ccc(N)cc2)n1	inconclusive [inhibitor, single point]	–
COC(=O)CCCC(=O)N1CCCC(C(=O)c2ccccc2SC)C1 (configuration not stated)	inconclusive [inhibitor, full curve, poor fit]	–
O=C(NCc1ccc(F)cc1)c1cnc2sccn2c1=O	inconclusive [inhibitor, full curve, poor fit]	–
O=C(Cc1ccc(-c2ccccc2)cc1)NCCN1CCOCC1	inconclusive [inhibitor, partial curve, poor fit]	–
CCOC(=O)CCc1cccc2c1CCC2=O	inconclusive [inhibitor, full curve, poor fit]	–
Cc1cc(NC(=O)c2ccc3nc(C)sc3c2)no1	–	inactive: 6.88%
Cc1ccc(NC(=O)CCNS(=O)(=O)c2cccc3nsnc23)cc1	inconclusive [inhibitor, full curve]	–
CCOc1ccc(/C=N/NC(=O)c2nnn(-c3nonc3N)c2-c2ccc(OCC)cc2)cc1	inconclusive [inhibitor, partial curve, poor fit]	–
COc1ccc(-n2nc(C(=O)N(C)C)nc2-c2ccccc2)cc1	inconclusive [inhibitor, partial curve]	–
COc1ccc(-c2nc3ccccc3s2)cc1NC(=O)c1cc2ccccc2o1	–	inactive: 29.6%
Cn1c(CCN2CCCCC2)nc2cc(NS(=O)(=O)c3ccc(Cl)cc3)ccc21	–	inactive: -0.991%
CCCC(=O)N1CCN(c2nc3ccc(CC)cc3s2)CC1	inconclusive [inhibitor, full curve, poor fit]	–
CCc1nc2ccccc2n1Cc1cc(=O)n2cc(C)ccc2n1	inconclusive [inhibitor, partial curve, poor fit]	–
COCc1cc(Sc2ccc(Cl)cc2)nc(-c2ccccc2)n1	inconclusive [inhibitor, single point]	–

Structure (SMILES)	Potency	activity change, negative = inhibition
Cc1ccc2oc3c(c(=O)c2c1)C(c1cccc(Cl)c1)N(CCCN1CCOCC1)C3=O (configuration not stated)	inconclusive [inhibitor, full curve]	–
O=C(CSc1nc(C(F)(F)F)cc(=O)[nH]1)Nc1cccc2ccccc12	inconclusive [inhibitor, full curve, poor fit]	–
Cc1ccccc1OCCNc1cc(N2CCCCC2)ccc1[N+](=O)[O-]	–	inactive: -2.24%
CC(=O)Nc1c(C(=O)NCc2ccccc2)nnn1Cc1ccccc1	inconclusive [inhibitor, partial curve, poor fit]	–
O=C(NNC(=O)C1CCCO1)c1ccccc1Cl (configuration not stated)	inconclusive [inhibitor, partial curve]	–
CCOCCSC1=C(C#N)C(c2cccs2)C(C(C)=O)=C(C)N1 (configuration not stated)	inconclusive [inhibitor, full curve, poor fit]	–
OCc1ccccc1N=c1ssnc1Cl	inconclusive [inhibitor, partial curve, poor fit]	–
O=C(Nc1ccccc1N1CCOCC1)c1cc(=O)[nH]c2ccccc12	inconclusive [inhibitor, full curve]	–
O=C(Cn1nnc(-c2cccc(C(F)(F)F)c2)n1)NNS(=O)(=O)c1cccc(C(F)(F)F)c1	inconclusive [inhibitor, partial curve]	–
CC(O)CN1CCN(C(=O)CN2C(=O)NC(c3ccccc3)(c3ccccc3)C2=O)CC1 (configuration not stated)	inconclusive [inhibitor, single point]	–
CCOc1ccccc1NC(=O)Cn1cnc2c(nnn2-c2cccc(OC)c2)c1=O	inconclusive [inhibitor, partial curve]	–
CN(C)c1ccc(N=Nc2ccccc2Br)cc1	–	inactive: 0.262%
Cc1cc(C)c(/C=C/c2onc(C)c2S(=O)(=O)N2CCC(C(=O)N3CCN(c4ccc(Cl)cc4)CC3)CC2)c(C)c1	–	inactive: 16.3%
O=C(CSCc1c(F)cccc1Cl)NCCSCc1ccco1	–	inactive: 3.98%
CCc1noc(C)c1C(=O)NCCc1ccc(F)cc1	inconclusive [inhibitor, partial curve, poor fit]	–
CN(C)c1cccc(C(=O)N/C=C/n2cnc3cc(C(F)(F)F)ccc32)c1	inconclusive [inhibitor, full curve, poor fit]	–
CN1CCCN(CC(O)COCc2cccs2)CC1 (configuration not stated)	–	inactive: 4.96%
Cc1coc2c(C)c3oc(=O)c(CCC(=O)N4C[C@H]5C[C@@H](C4)c4cccc(=O)n4C5)c(C)c3cc12	inconclusive [inhibitor, partial curve, poor fit]	–
CCOc1ccc(Cl)cc1S(=O)(=O)n1nnc2ccccc21	inconclusive [inhibitor, full curve]	–
Cc1cc(C)n2nc(C(=O)OCC(=O)N(Cc3ccccc3)C(C)C)nc2n1	inconclusive [inhibitor, full curve, poor fit]	–
COc1ccc(CCn2c3c(c(=O)[nH]c2=O)C(NC(=O)c2ccccc2)(C(F)(F)F)C(=O)N3)cc1OC (configuration not stated)	–	inactive: 22.9%
